# Measurements published in article PMC4336329 (PLoS ONE, 2015).
# About 14,000 (4.5%) of roughly 310,000 compounds showed an effect of 50% or more. The effect is printed as a negative number. Some of the results follow.
# Biological target: human ether-à-go-go-related gene (hERG) potassium channel (human, UniProt Q12809)
# Test: primary screen, population patch clamp on CHO cells stably expressing hERG
# 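Note: peak tail current of the secondary pulse compared with the same well before compound.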
# human ether-à-go-go-related gene (hERG) potassium channel, sequence (Q12809 whole entry, looked up): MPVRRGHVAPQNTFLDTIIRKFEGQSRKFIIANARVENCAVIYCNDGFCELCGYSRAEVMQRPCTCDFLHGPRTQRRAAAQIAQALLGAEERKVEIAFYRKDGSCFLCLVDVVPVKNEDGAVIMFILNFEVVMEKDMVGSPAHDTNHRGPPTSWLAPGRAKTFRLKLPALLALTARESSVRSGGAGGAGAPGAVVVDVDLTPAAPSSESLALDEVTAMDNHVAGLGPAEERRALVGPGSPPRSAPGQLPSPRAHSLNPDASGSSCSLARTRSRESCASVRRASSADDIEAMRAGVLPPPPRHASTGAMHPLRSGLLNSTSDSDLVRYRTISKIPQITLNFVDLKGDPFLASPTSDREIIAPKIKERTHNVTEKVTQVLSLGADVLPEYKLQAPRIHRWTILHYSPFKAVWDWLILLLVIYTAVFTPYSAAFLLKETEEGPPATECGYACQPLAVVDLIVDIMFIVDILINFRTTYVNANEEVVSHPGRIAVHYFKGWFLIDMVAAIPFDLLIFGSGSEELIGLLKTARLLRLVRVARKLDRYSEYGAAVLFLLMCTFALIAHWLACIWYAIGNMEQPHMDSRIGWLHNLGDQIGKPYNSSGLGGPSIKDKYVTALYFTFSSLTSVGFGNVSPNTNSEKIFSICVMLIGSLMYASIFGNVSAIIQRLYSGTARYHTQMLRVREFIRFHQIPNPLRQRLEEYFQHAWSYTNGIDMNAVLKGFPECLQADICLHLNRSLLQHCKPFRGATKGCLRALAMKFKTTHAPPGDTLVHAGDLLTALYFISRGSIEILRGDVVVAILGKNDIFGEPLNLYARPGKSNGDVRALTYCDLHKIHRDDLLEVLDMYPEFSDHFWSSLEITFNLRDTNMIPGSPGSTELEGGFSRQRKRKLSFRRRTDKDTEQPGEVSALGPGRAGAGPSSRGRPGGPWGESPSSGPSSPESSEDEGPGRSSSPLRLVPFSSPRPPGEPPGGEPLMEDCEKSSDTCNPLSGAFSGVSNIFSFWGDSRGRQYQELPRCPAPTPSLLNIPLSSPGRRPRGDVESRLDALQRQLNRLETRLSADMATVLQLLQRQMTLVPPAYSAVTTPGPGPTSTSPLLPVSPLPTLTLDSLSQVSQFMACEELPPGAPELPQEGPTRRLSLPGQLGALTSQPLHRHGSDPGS
row,SMILES,"hERG current change (%, negative = inhibition) at 10uM"
1,Cc1cc(Cl)cc(Cl)c1OCCOc1cccc2cccnc12,8.35%
2,CCc1ccc(-c2cc(C)no2)cc1S(=O)(=O)NCCc1ccc(OC)c(OC)c1,1.38%
3,O=C(CCn1nnnc1CN1CCOCC1)N1CCC(c2ccccc2F)C1 (centres unmarked),-1.43%
4,CCCCC(NC(=O)Cc1c(C)c2cc3c4c(oc3cc2oc1=O)CCCC4)C(=O)O (centres unmarked),10.8%
5,c1ccc(CNc2c3c(nc4ncnn24)CCCC3)nc1,-14.5%
6,Cc1ccc(CNC(=O)CCn2ccc3cc(S(=O)(=O)N4CCCC4)ccc32)cc1,-12.7%
7,COc1ccc(N2CCN(c3ccc(C(=O)O)cc3[N+](=O)[O-])CC2)cc1,11%
8,COc1ccc(CC(=O)Nc2c3c(nn2C(C)(C)C)CS(=O)C3)cc1 (centres unmarked),9.2%
9,COCCCNS(=O)(=O)c1ccc2c(c1)OCCO2,6.53%
10,Cc1ccc(C(=O)N2CCCC(CCC(=O)N3CCN(c4ccccn4)CC3)C2)cc1 (centres unmarked),-9.9%
11,O=C(Oc1ccccc1C(=O)N1CCOCC1)c1ccc(F)cc1,9.44%
12,COc1ccc(NCc2nc3ccccc3n2C)cc1,-2.21%
13,COc1cc2cc(C(c3nnnn3C3CCCC3)N3CCCCCC3)c(=O)[nH]c2cc1OC (centres unmarked),-13.7%
14,O=C(c1ccc2c(c1)OCO2)N1CCCC(c2ccccc2)C1 (centres unmarked),-3.89%
15,C=CCNC(=O)N1CCC(n2nccc2NC(=O)CCc2ccccc2)CC1,21.2%
16,COc1cc(Cn2c(=O)oc3ccc(C)cc32)ccc1OC(C)C,-14.9%
17,COc1ccc(CS(=O)(=O)CC(C)(O)c2ccccc2)cc1 (centres unmarked),5.3%
18,COc1ccc(NC(=O)Nc2ccc(F)cc2)c(C)c1,13.8%
19,CCC1CCCCN1Cc1ccc(OC)c(C)c1C (centres unmarked),-31.2%
20,Cc1noc(C)c1COC(=O)c1cc(S(=O)(=O)N2CCOCC2)ccc1F,-2.88%
21,Nc1ncc([N+](=O)[O-])c(Oc2ccccc2F)n1,24.7%
22,CC1(c2ccc(Cl)cc2Cl)OCC(Cn2cncn2)O1.O=[N+]([O-])O (centres unmarked),8.39%

row,SMILES,"hERG current change (%, negative = inhibition) at 10uM"
1,O=C(N[C@H]1CCC(=O)N(CCSc2ccc(Br)cc2)CC1)OCc1ccccc1,-29.2%
2,CC1CCCN(C/C=C/c2ccccc2[N+](=O)[O-])C1 (centres unmarked),-23.1%
3,COC(=O)c1cc(-c2ccc(Br)cc2)on1,8.48%
4,COc1ccc(CNC(=O)c2nnn(Cc3ccc(OC)cc3)c2N)cc1,-1%
5,CCOc1ccccc1C(=O)Nc1ccccc1-c1ccccc1,1.71%
6,O=C(Oc1nsnc1N1CCOCC1)c1ccccc1,13.3%
7,COc1ccc(Cl)cc1N(CC(=O)Nc1cccc(SC)c1)S(C)(=O)=O,-9.58%
8,Cc1ccc(CN2CCSCC2)c(C)c1,16.9%
9,CCOc1ccc(S(=O)(=O)NCCC(=O)NCC(c2ccc(F)cc2)N2CCOCC2)cc1 (centres unmarked),-9.62%
10,COc1ccc(/C=C/C(=O)NC(=S)N2CCCC(C(N)=O)C2)cc1 (centres unmarked),16.2%
11,COc1cc(/C=N/NC(=O)c2cc(-c3ccccc3)nc3ccccc23)cc(OC)c1O,12.5%
12,O=C1NC(=S)N/C1=C\c1cccc([N+](=O)[O-])c1,14.7%
13,c1ccc(N2N=C(c3cccs3)CC2c2ccco2)cc1 (centres unmarked),2.24%
14,CCn1cc([N+](=O)[O-])c(C(=O)Nc2ccn(C34CC5CC(CC(C5)C3)C4)n2)n1,-1.11%
15,O=C(c1cccc(NS(=O)(=O)c2ccc(Br)cc2)c1)N1CCCCC1,-6.08%
16,CCOc1cc(/C=C(\C#N)c2nc(-c3cccs3)c(NC(C)=O)s2)ccc1O,-8.81%
17,Cc1nn(-c2ccccc2)c(C)c1C(=O)OCC(=O)N(C)c1ccccc1,-10.4%
18,Cc1ccc(C)c(S(=O)(=O)N2CCC(c3nc4c(nnn4Cc4ccc5c(c4)OCCO5)c(=O)[nH]3)CC2)c1,21.3%
19,CS(=O)(=O)c1ccc(N)c(SSc2cc(S(C)(=O)=O)ccc2N)c1,8.37%
20,Clc1ccc(Cn2cnc3ccccc32)cc1,7.95%
21,CC(CN1CCCC1)OC(=O)c1ccccc1Cl.Cl (centres unmarked),2.62%
22,O=C(COC(=O)c1ccc(O)cc1O)Nc1ncc(Cl)cc1Cl,-7.26%
